Test systems include WM115; WM1716; WM1745; WM3526; WM3619; WM451Lu.
Common to all, as to experiment: cell count relative to DMSO control; melanoma cells; higher = more viable cells
What all share (settings): library dose: low library concentration; 72 h

The list shows a part of the results. Single values are uncertain, as repeats are few or missing.
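Further: cell number obtained by counting DAPI-stained nuclei in high-throughput microscope images with image analysis software, screen run in 1,536-well plates.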

Regarding `CCN(CC)CCNC(=O)c1c(C)[nH]c(/C=C2\C(=O)Nc3ccc(F)cc32)c1C` [sunitinib] + COc1cc(N2CCC(N3CCN(C)CC3)CC2)ccc1Nc1ncc(Cl)c(Nc2ccccc2S(=O)(=O)C(C)C)n1 [NVP-TAE684] (first compound 0.4 µM, partner dose 0.08 µM), the cell count in the test on WM115 amounted to 94%; in the test with WM1716, 118%; in the test with WM1745, 68.5%; with WM3526, 52%; in the test on WM3619, 131%; in the test with WM451Lu, 90.5%.

As for `CCN(CC)CCNC(=O)c1c(C)[nH]c(/C=C2\C(=O)Nc3ccc(F)cc32)c1C` [sunitinib] + COc1ccc2c(c1)CCC1C2CCC2(C)C(NCCCCCCN3C(=O)C=CC3=O)CCC12 [U73122] (first compound 0.4 µM, partner dose 0.4 µM), the cell count was 103% with WM115; 127% in the test on WM1716; 70.8% in the test on WM1745; 84% in the test with WM3526; 132% in the test with WM3619; 86% with WM451Lu.

As for `CCN(CC)CCNC(=O)c1c(C)[nH]c(/C=C2\C(=O)Nc3ccc(F)cc32)c1C` [sunitinib] + O=C(Nc1ccccc1)c1cc([N+](=O)[O-])ccc1Cl [GW9662] (first compound 0.4 µM, partner dose 2 µM), the cell count in the test on WM115 is 100%; with WM1716 it was 110%; in the test on WM1745, 80.9%; in the test on WM3526, 83.5%; in the test on WM3619, 105%; in the test with WM451Lu, 110%.

For the compound `COc1cc([C@@H]2c3cc4c(cc3[C@@H](O[C@@H]3O[C@@H]5CO[C@@H](C)O[C@H]5[C@H](O)[C@H]3O)[C@H]3COC(=O)[C@H]23)OCO4)cc(OC)c1O` [etoposide] + Cc1cn(-c2cc(NC(=O)c3ccc(C)c(Nc4nccc(-c5cccnc5)n4)c3)cc(C(F)(F)F)c2)cn1 [nilotinib] (first compound 0.02 µM, partner dose 0.2 µM), the cell count is 94.7% in the test on WM115; 84.7% in the test on WM1716; 81.2% in the test with WM1745; 112% in the test with WM3526; 86% in the test on WM3619; 88.9% in the test with WM451Lu.

Take `COc1cc([C@@H]2c3cc4c(cc3[C@@H](O[C@@H]3O[C@@H]5CO[C@@H](C)O[C@H]5[C@H](O)[C@H]3O)[C@H]3COC(=O)[C@H]23)OCO4)cc(OC)c1O` [etoposide] + COCC[n+]1c2c(n(Cc3cnccn3)c1C)C(=O)c1ccccc1C2=O [YM155] (first compound 0.02 µM, partner dose 0.0004 µM): the cell count in the test with WM115 is 91.9%; with WM1716, 92.8%; in the test on WM1745 it was 89.6%; in the test on WM3526, 103%; in the test on WM3619, 102%; in the test on WM451Lu it was 88.1%.

As to `CCN(CC)CCNC(=O)c1c(C)[nH]c(/C=C2\C(=O)Nc3ccc(F)cc32)c1C` [sunitinib] + O=C(O)c1ccc(-c2c[nH]c3ncc(-c4ccccc4)cc23)cc1C1CCCC1 [GSK650394] (first compound 0.4 µM, partner dose 0.16 µM), the cell count with WM115 turned out to be 105%; in the test on WM1716, 144%; in the test with WM1745, 65%; in the test on WM3526, 77.9%; in the test with WM3619 it was 94.9%; in the test on WM451Lu, 122%.
